Measured values: PubChem BioAssay AID1963958 (Molecular Pharmacology Branch, DTP, NCI, 2024)
The source holds more than one record for some entries. The list is limited to them. There may be further records. Values that stand side by side repeat one measurement in other runs, samples, wells, individuals or studies. One block for each compound: values may come before it.

Tested on: MDA-MB-231 multicell spheroids, viability
Assay: Anticancer human tumor MDA-MB-231 cell line growth inhibition [PI3K];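 note: spheroids exposed to agents for seven days before reading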;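 for viability, T/C: percent of vehicle control luminescence with DMSO treated spheroids as 100%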
Settings: for IC50: compound alone; for viability, T/C: stronger effect = lower value
Description: Combinatorial screen of targeted agents with the PI3K inhibitors inavolisib, alpelisib, duvelisib, and copanlisib in multi-cell type tumor spheroids
A high-throughput screen of multi-cell type tumor spheroids was designed to identify active combinations of targeted small molecules and PI3K pathway inhibitors. Complex spheroids include a stromal component modeled by human endothelial cells (HUVEC) and fibroblasts modeled by human mesenchymal stem cells (MSCs). The concentration ranges selected for each drug and investigational agent were based upon clinically achievable concentrations if the clinical Cmax of the agent was known.
Compounds. The drugs and investigational agents: inavolisib (NSC800729), alpelisib (NSC765974), duvelisib (NSC772469), copanlisib (NSC816437), ipatasertib (NSC767898), afuresertib (NSC778305), talazoparib (NSC767125), sapanisertib (NSC764658), selumetinib (NSC741078), tovorafenib (DAY101, NSC766906), vemurafenib (NSC761431), ravoxertinib (NSC781343), sotorasib (NSC818433), MRTX1133 (NSC 836407), abemaciclib (NSC 768073), palbociclib (NSC758247), venetoclax (NSC 766270), SY5609 (NSC837396), enzalutamide (NSC755605), and darolutamide (NSC825331), were obtained from the National Cancer Institute (NCI) Developmental Therapeutics Program Chemical Repository. The FDA-approved anticancer drug set is available from the NCI Developmental Therapeutics Program. […] The stock solutions were prepared in dimethyl sulfoxide (DMSO, Sigma-Aldrich, St. Louis, MO, cat. D2650) at 800-fold the tested concentration and stored at -70 degrees C prior to their use. All drugs and investigational agents were tested over a range starting from a high concentration at or near the clinical Cmax and decreasing in half-log increments. If the clinical Cmax for an agent had not been determined, the highest concentration tested was 10 microM.
Cell Culture. All cells were maintained in an incubator at 37 degrees C and 5% CO2 with 95% humidity. The PDC lines were cultured according to standard operating procedures established by the NCI PDMR (https://pdmr.cancer.gov/sops/default.htm). All PDCs were thawed and cultured in Matrigel-coated flasks prepared with a working solution of 1X Ham's F-12 nutrient mix, without supplementation (Invitrogen, Waltham, MA, cat. 11765054), 100 U/mL penicillin-streptomycin (Invitrogen, cat. 15140122), and 2.5% Matrigel (Corning Inc., Corning, NY, cat. 354248) for the first three passages. The 354836-022-R-J1-PDC, 475296-252-R-J1-PDC, and 997726-040-R-J2-PDC lines were cultured in 6A media, which includes advanced DMEM/F-12 (Thermo Fisher Scientific, cat. 12634028), 10 mM HEPES (Thermo Fisher Scientific, cat. 15630080), 1X GlutaMAX supplement (Thermo Fisher Scientific, cat. 35050061), 0.1 mg/mL primocin (InvivoGen, San Diego, CA, cat. ant-pm-2), 10% defined fetal bovine serum, heat inactivated (HyClone Laboratories Inc., Logan, UT, cat. SH30070.03HI), 50% L-WRN conditioned media (ATCC, cat. CRL-3276), 1.25 mM N-Acetyl-L-cysteine (Sigma-Aldrich, cat. A9165), 10 mM nicotinamide (Sigma-Aldrich, cat. N0636), 1X B-27 supplement (Thermo Fisher Scientific, cat. 17504044), 1X N-2 supplement (Thermo Fisher Scientific, cat. 17502048), and 10 microM Y-27632 dihydrochloride (Tocris Bioscience, Bristol, United Kingdom, cat. 1254). The 624824-186-R-J2-PDC line was cultured in 6C/Colon 1B media, which includes all 6A media components plus 50 ng/mL human EGF recombinant protein (Thermo Fisher Scientific, cat. PHG0311). […]

IC50: 6.56 µM, 6.93 µM, 7.24 µM, > 10 µM
SMILES: CC1(C)CCC(CN2CCN(c3ccc(C(=O)NS(=O)(=O)c4ccc(NCC5CCOCC5)c([N+](=O)[O-])c4)c(Oc4cnc5[nH]ccc5c4)c3)CC2)=C(c2ccc(Cl)cc2)C1
viability, T/C (compound alone 10 µM): 16.1, 23.3, 27.6, 107%

IC50: 361 nM, 213 nM, > 1 µM, 410 nM
SMILES: CCN1CCN(Cc2ccc(Nc3ncc(F)c(-c4cc(F)c5nc(C)n(C(C)C)c5c4)n3)nc2)CC1

SMILES: C#Cc1c(F)ccc2cc(O)cc(-c3ncc4c(N5CC6CCC(C5)N6)nc(OCC56CCCN5CC(F)C6)nc4c3F)c12 (stereo not given)
viability, T/C (compound alone 3.16 µM): 69.4, 81, 88.1, 95.5%

SMILES: C[C@@H](NC(=O)c1ncnc(N)c1Cl)c1ncc(C(=O)Nc2cc(C(F)(F)F)c(Cl)cn2)s1
viability, T/C (compound alone 0.1 µM): 89.2, 102, 130, 120% | viability, T/C (compound alone 0.316 µM): 82.3, 81, 107, 116% | viability, T/C (compound alone 1 µM): 78.8, 90.5, 96.1, 104%

SMILES: C=CC(=O)N1CCN(c2nc(=O)n(-c3c(C)ccnc3C(C)C)c3nc(-c4c(O)cccc4F)c(F)cc23)C(C)C1 (stereo not given)
viability, T/C (compound alone 1 µM): 101, 107, 130, 123%

IC50 (run of 05/09/2023): > 10 µM, 9.92 µM, 7.98 µM, 7.71 µM
SMILES: CC(Nc1ncnc2nc[nH]c12)c1cc2cccc(Cl)c2c(=O)n1-c1ccccc1 (stereo not given)

SMILES: Cn1ncnc1[C@H]1c2n[nH]c(=O)c3cc(F)cc(c23)N[C@@H]1c1ccc(F)cc1
viability, T/C (compound alone 0.001 µM): 104, 81, 110, 97.4%
